Experimental data as given in article PMC4336329 (PLoS ONE, 2015).
Among all 310,000 compounds or so, about 2,200 (0.71%) showed an effect of 50% or more. Effects have a minus sign here. This is one part of the list.

What follows are molecules tested against human ether-à-go-go-related gene (hERG) potassium channel (human, UniProt Q12809) (assay: primary screen, population patch clamp on CHO cells stably expressing hERG).
Chain of human ether-à-go-go-related gene (hERG) potassium channel (Q12809 whole entry, looked up): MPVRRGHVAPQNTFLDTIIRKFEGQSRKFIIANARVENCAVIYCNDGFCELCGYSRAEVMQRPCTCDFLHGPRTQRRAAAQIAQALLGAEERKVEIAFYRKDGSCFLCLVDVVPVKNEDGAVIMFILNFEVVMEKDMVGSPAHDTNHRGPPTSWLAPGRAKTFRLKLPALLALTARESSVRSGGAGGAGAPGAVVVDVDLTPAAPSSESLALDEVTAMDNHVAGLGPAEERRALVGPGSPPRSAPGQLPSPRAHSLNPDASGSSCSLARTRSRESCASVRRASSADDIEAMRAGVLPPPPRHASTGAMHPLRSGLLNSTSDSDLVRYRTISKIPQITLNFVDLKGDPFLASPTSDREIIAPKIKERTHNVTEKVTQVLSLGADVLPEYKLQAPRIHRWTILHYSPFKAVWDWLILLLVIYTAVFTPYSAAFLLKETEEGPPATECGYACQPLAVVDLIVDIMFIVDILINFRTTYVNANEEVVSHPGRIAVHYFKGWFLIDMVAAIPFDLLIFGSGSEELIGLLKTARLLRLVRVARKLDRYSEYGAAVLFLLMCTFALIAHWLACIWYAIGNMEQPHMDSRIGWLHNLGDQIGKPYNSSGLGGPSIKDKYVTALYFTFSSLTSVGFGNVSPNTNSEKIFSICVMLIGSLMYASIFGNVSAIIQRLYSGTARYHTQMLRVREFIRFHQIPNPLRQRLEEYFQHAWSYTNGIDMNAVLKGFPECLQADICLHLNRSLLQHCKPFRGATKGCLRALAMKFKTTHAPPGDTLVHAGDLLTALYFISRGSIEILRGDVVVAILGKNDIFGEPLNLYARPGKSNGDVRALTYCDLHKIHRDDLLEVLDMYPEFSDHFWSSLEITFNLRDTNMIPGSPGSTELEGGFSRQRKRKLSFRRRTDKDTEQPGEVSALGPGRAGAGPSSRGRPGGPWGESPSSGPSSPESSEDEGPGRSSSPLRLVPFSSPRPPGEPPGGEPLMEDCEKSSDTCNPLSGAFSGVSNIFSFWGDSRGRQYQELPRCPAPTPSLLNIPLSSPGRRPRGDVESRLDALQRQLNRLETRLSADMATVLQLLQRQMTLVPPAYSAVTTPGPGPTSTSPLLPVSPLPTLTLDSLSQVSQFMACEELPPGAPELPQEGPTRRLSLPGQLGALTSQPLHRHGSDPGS

SMILES | hERG current change (%, negative = inhibition) at 1uM [%]
CCC1(c2ccccc2)NC(=O)N(Cc2ccc(C(=O)OC)cc2)C1=O (stereo not shown) | 7.93
C/C(N)=C(/C#N)C(=O)COC(=O)c1cc(-c2cccc(Br)c2)nc2ccccc12 | -6.4
CCCCn1c(O)c(/C=C2/C=CC=N2)c(=O)[nH]c1=O | 29.2
Cc1cc(C)c(C(=O)OCC(=O)NC(=O)c2ccccc2)c(C)c1 | 7.82
COc1ccc(C2/C=C\CN(C(=O)C3CC3)[C@H](Cc3ccccc3)C(=O)N2Cc2ccc(F)cc2)cc1 (stereo partly shown) | 10.7
Cc1nn(C(C)C)c(C)c1CN1CCC(C(=O)Nc2cccc(-c3cccc(F)c3)c2)CC1 | -1.94
Cc1cc(C)c(C)c(OCC(=O)NCC2CCCO2)c1 (stereo not shown) | 2.34
CC1(C)SC2c3ccccc3C(=O)N2[C@@H]1C(=O)NCCCN1CCOCC1 (stereo partly shown) | 8.39
NS(=O)(=O)c1ccc(NC(=S)NCCc2ccccc2)cc1 | 16.3
S=C(NCc1cccnc1)Nc1cc(Cl)cc(Cl)c1 | 10.2
CCOC(=O)c1c(C)[nH]c(C(=O)COC(=O)CCS(=O)(=O)c2ccc(C)cc2)c1C | -3.29
CCOc1ccc(NC(=O)CN(C)C(=O)c2ccc(N3CCCC3)c([N+](=O)[O-])c2)cc1OCC | -8.92
COc1ccccc1-n1c(CNc2c(C)cccc2C)nnc1SCC(=O)N1CCOCC1 | -4.47
NC(=O)c1nn(-c2ccccc2)nc1NC(=O)Cn1nnc(-c2ccccc2)n1 | 22.5
CCc1noc(C)c1C(=O)Nc1cccc(S(=O)(=O)N(C)c2ccccc2)c1 | 9
O=C(CC1C(=O)NCCN1Cc1c(F)cccc1Cl)NC1CCCC1 (stereo not shown) | 9.74
CCOCCCNC(=O)c1c(-c2ccccc2)noc1C | 9.76
CCN1CCN(C2=C(NS(=O)(=O)c3ccccc3)C(=O)c3ccccc3C2=O)CC1 | 12.5
CCOC(=O)Nc1ccc(S(=O)(=O)N2CCOCC2)cc1 | 6.76
O=C1C2CCCN2C(c2ccc(Br)cc2)N1c1ccc(F)cc1 (stereo not shown) | 3.21
CCc1nnc(NS(=O)(=O)c2ccc(NC(=O)c3ccccc3C)cc2)s1 | 13.8
CCN(CC)C(=O)c1ccc(/C=C/c2c[nH]c3ccccc23)[n+](C)c1.[I-] | 14.6

SMILES | hERG current change (%, negative = inhibition) at 1uM [%]
O=C1NC(=O)C(CCc2ccncc2)(CCc2ccncc2)C(=O)N1CCc1ccccc1 | -23.1
Cc1ccc(-c2cc(C(F)F)nc(NCc3cccs3)n2)cc1 | 1.19
CCCC(=O)Nc1ccc(C)c(O)c1 | 10.7
COc1ccc(CCNCC(=O)Nc2ccc(C)c(Br)c2)cc1OC.Cl | -0.5
Nc1c(S(=O)(=O)c2cccs2)c2nc3ccccc3nc2n1/N=C/c1cccc(O)c1 | 2.55
O=c1nc(Nc2ccccc2)oc2ccccc12 | 10.7
Cc1ccc(C)c(C2=CSC3=NS(=O)(=O)CCN23)c1 | 22.5
CC(=O)c1ccc(OCc2cc(C(=O)N(C)Cc3ncc(C)[nH]3)no2)cc1 | 4.39
COc1ccccc1NC(=S)NC(=O)C(C)C | 1.14
CC1(C)NC(=O)N(CC(=O)N2CCN(S(=O)(=O)c3cc(Cl)ccc3Cl)CC2)C1=O | 3.66
CSc1sc(C(=O)N(C)C)cc1S(=O)(=O)C(C)C | 9.35
Oc1ccc(/C=N/NC(=S)N2CCOCC2)cc1 | 10.5
Cc1ccc(-c2cc(C(=O)N/N=C/c3c(C)nn(C)c3C)c3ccccc3n2)c(C)c1 | 10.4
Cl.Oc1ccccc1Nc1nc(NCc2ccco2)c2ccccc2n1 | 4.18
CCOC(=O)c1c(NC(=O)C(C)OC(=O)C2=COCCO2)sc2c1CCCC2 (stereo not shown) | 9.54
N#C/C(C(=O)N1CCOCC1)=C1/SC(Cc2ccc(F)cc2)C(=O)N1c1ccccc1 (stereo not shown) | 13.2
COc1cc(CNc2ccc(N3CCN(C(C)=O)CC3)cc2)ccc1OCc1ccccc1 | 10.9
Cc1ccc(S(=O)(=O)NC(CC(=O)N2CCOCC2)c2ccco2)cc1 (stereo not shown) | 9.66
CCCCNc1cnn(-c2ccccc2)c(=O)c1Cl | 10
CNc1ccccc1C(C)(C)c1cc(-c2cc(C)cc(C)c2)no1 | 17
Cc1oc(-c2ccc(C(F)(F)F)cc2)nc1CN(Cc1ccccn1)C[C@@H]1CCC(=O)N1 | -14.5
CCN(CC)c1ccc(C=Nc2ccccc2C)c(O)c1 | 7.05

SMILES | hERG current change (%, negative = inhibition) at 1uM [%]
CCCCCC(=O)Nc1cccc2ccccc12 | 5.48
COc1cc(/C=C/C(=O)OCC(=O)NCc2cccs2)ccc1OCC#N | 10.6
CCN(CC)CCOC(=O)c1ccc(NC(=O)/C=C/c2cccs2)cc1.Cl | -53.5
O=C(N/N=C/c1ccc(O)c(O)c1)c1ccc(-n2cnnn2)cc1 | 0.209
CC(CCc1ccccc1)NC(=O)c1ccc(NC(=O)c2ccc(Cl)cc2Cl)cc1 (stereo not shown) | 5.84
C/C(=N\NS(=O)(=O)c1ccc(Br)cc1)c1ccc2c(c1)OCO2 | 4.14
COc1ccc(NC(=O)Cn2c(=O)n(CC(=O)NCc3ccco3)c(=O)c3ccccc32)cc1OC | 11.1
O=C(CSc1nnc(-c2ccco2)n1Cc1ccccc1)NC(=O)NCc1ccccc1 | 8.4
Cc1ccc(C)c(N2CCN(c3nc4ccccc4c(=O)n3Cc3ccccc3)CC2)c1 | 10.3
CC(=O)Nc1ccc(NC(=O)C(C)OC(=O)c2ccc3[nH]c(C)c(C)c3c2)cc1 (stereo not shown) | 11.2
CCOC(=O)C1Nc2ccc(C(=O)O)cc2C2C=CCC12 (stereo not shown) | 15.4
COCCC(=O)N(Cc1ccc2c(c1)OCO2)C(C(=O)NC1CCCCC1)c1ccncc1 (stereo not shown) | 0.827
CC(=O)NCCC(=O)Nc1cc(S(=O)(=O)N2CCOCC2)ccc1N1CCCC1 | 17.3
CCCSC1=C(C#N)C2(CCCCC2)C(C#N)=C(N)N1 | 6.83
CN(C)S(=O)(=O)N1CCc2ccc(NC(=O)c3ccc(C(F)(F)F)cc3)cc2C1 | 26.7
Cc1ccc(-n2nnc3c(=O)n(Cc4cccc(C)c4)cnc32)cc1 | 14.2
O=C(N/N=C\C=C\c1ccc([N+](=O)[O-])o1)c1cccs1 | 8.01
N#Cc1c(N2CCCCC2)nc(N2CCCCC2)c2c1CCN(Cc1ccccc1)C2 | 7.31
CCCNC(=O)N1[C@H]2CC[C@@H]1C(C(=O)OC)=C(c1c(C)noc1C)C2 | 11.8
CCN(C(=O)c1cc(Cl)ccc1OC)c1ccccc1 | 16.9
COC(CNC(=O)[C@H](Cc1ccccc1)N1Cc2ccccc2C1=O)OC | 11.7
CC(=O)c1c(C(C)=O)c(C)n(NC(=O)c2ccccc2Cl)c1C | 15.2

SMILES | hERG current change (%, negative = inhibition) at 1uM [%]
N#CC1=C(S)N(c2ccccc2)C(c2ccc(-c3ccccc3Cl)o2)NC1=O (stereo not shown) | 9.7
CCN(Cc1ccncc1)C(=O)c1cc(COc2c(F)cccc2F)on1 | -8.09
O=C(Nc1cc(N2CCOCC2)ncn1)c1ccc(F)cc1 | -4.41
O=C(c1ccc(N2CCOCC2)nc1)N1CCOCC1 | 5.93
CCN(CC)C(=O)CSc1nc(O)cc(=O)n1CC | 5.12
CCN(CC)C(=O)C1CCCN(C(=O)Nc2ccccc2)C1 (stereo not shown) | -2.22
CCOc1cc(Br)ccc1S(=O)(=O)N1CCC(C(N)=O)CC1 | -2.43
CCC(C)NC(=O)c1ccc(-n2c(=S)[nH]c3ccccc3c2=O)cc1 (stereo not shown) | 15.5
O=C(C1CCN(S(=O)(=O)c2ccc(Cl)cc2)CC1)N1CCC1 | 13.2
O=C(c1cn(-c2ccccc2)nc1-c1ccc(Cl)s1)N1CCOCC1 | 1.21
CN1C(=O)/C(=C/c2ccccc2F)Sc2ccc(C(=O)NCC3CCCO3)cc21 (stereo not shown) | 3.48
CCN1CCN(Cc2ccc(NC(=O)c3ccc(C)c(NC(=O)c4ccnnc4)c3)cc2C(F)(F)F)CC1 | 13.3
O=C(Nc1ccccc1)Nc1nnc(CSCc2ccccc2Cl)s1 | 5.66
O=C(Nc1nnc(-c2ccccn2)o1)c1ccc(Br)cc1 | 13
Cc1nnc(NC(=O)CSC2CCCCC2)s1 | 9.28
COCc1c(C(=O)OC)nnn1-c1ccccc1 | 4.9
CCC(=O)c1cc(F)ccc1OCC(=O)Nc1ccc2c(c1)OCCO2 | 2.38
Cn1c(=O)c2[nH]c(=O)cnc2n(C)c1=S | 10.1
Cc1ccccc1Oc1ncnc2oc(-c3ccccc3)cc12 | 3.42
CCC1=NN(C(=O)c2ccc(Cl)cc2)C(O)(c2ccc(C)cc2)C1 (stereo not shown) | 9.89
CC1(C)CC(=O)C=C(C(=O)N2CCCC(C(=O)c3cccc(Cl)c3)C2)O1 (stereo not shown) | -0.27
O=C(CSC1c2ccccc2-c2ccccc21)N/N=C/c1ccccc1C(=O)O | 7.3
